The labels stand for the following.
B1: ENSG00000124766:be:win_201|CDS|ENSG00000124766|bound_else_gene|NA|bound_elsewhere_windowed (ssRNA)
RNA: GGGAGUUCUACAGUCCGACGAUCGGUGUGGUCGCAGAUCGAGCGGCGCAAGAUCAUGGAGCAGUCGCCCGACAUGCACAACGCCGAGAUCUCCAAGCGGCUGGGCAAACGCUGGAAGCUGCUCAAAGACAGCGACAAGAUCCCCAACAGAGGAUUGAGCAUCA
B2: chr10:62094764:62094865:+|3pUTR|ENSG00000150347|msi1|total|mutant (ssRNA)
RNA: GGGAGUUCUACAGUCCGACGAUCGAUGAACUCCCCAACCCACUGUGCCCCUCCCGCAACACUACCAGCCGACUUCCGAACCACCGUUAACUAAGUCUUUUACCUCUGAGAUACUUAAUUCUGGGAAAAUUGGUGACAAUUUUCCAACAGAGGAUUGAGCAUCA
B3: chr17:75064992:75065093:+|3pUTR|ENSG00000180901|msi1|FALSE|unique (ssRNA)
RNA: GGGAGUUCUACAGUCCGACGAUCAGGCGCUUGUCCCUGUCUGCUUUCCUGGGGCAUGCCUGAUCAGCGUGGGCUGGAGCUCCUAGACCAACCCCAGCUUUCUCACCAGGUUCAGCAAGGAGGCCUGGGGGUCAGACACCAAUGCAACAGAGGAUUGAGCAUCA
B4: chr3:170392585:170392686:+|3pUTR|ENSG00000136603|msi1|FALSE|bound_elsewhere (ssRNA)
RNA: GGGAGUUCUACAGUCCGACGAUCUACAUUUUCCAAAUGAAUGAAAAUGUAUGUUUCUUUGUACUUUUUUAAAAAAAUCAGCUUAGUAACAAUACUAUAUGGUUUCAACUAGUAGGUAAUCUGCUUAUAUUUCUAAUGCAAACUCAACAGAGGAUUGAGCAUCA
B5: ENSG00000070961:be:win_251|CDS|ENSG00000070961|bound_else_gene|NA|bound_elsewhere_windowed (ssRNA)
RNA: GGGAGUUCUACAGUCCGACGAUCUGUUUGGAAAGAAUUUUAUACCUCCUAAAAAGCCAAAAACCUUUCUUCAAUUAGUAUGGGAAGCAUUACAAGAUGUCACUUUAAUUAUAUUAGAAAUUGCAGCCAUAGUAUCAUUGGGCCCAACAGAGGAUUGAGCAUCA
B6: chr1:180199467:180199568:+|3pUTR|ENSG00000116260|msi1|total|mutant (ssRNA)
RNA: GGGAGUUCUACAGUCCGACGAUCCACAGGAACAAUUUCCUCAAGGAGACAGUGGCAUGGAGCUUUGAAAGACGAGCCGGUGUCCGCAAGGAAAUAAGGAGGAACGGGGGUUACGGGCAGAGGAGAAAGCACAUGCCAAGUCAGCAACAGAGGAUUGAGCAUCA
B7: ENSG00000107863:be:win_1551|CDS|ENSG00000107863|bound_else_gene|NA|bound_elsewhere_windowed (ssRNA)
RNA: GGGAGUUCUACAGUCCGACGAUCUUCCAAUGGAGAGAAAAAACAGACUUACAAGUGGAGUGGGUUUACUGAACAGGAUGAUAGACGAGGUAUUUGUGAAAGACCUAGGCAGCAAGAAAUUCAUAAAUCUUUUCGAGGUUCCAACAACAGAGGAUUGAGCAUCA
B8: chr19:57858129:57858983:-|three_prime_utr|ENSG00000204514|control|control|control (ssRNA)
RNA: GGGAGUUCUACAGUCCGACGAUCCCUGUGACACCCUGAGCUUACGUUUCUUUACAAACGAUGCUUCUCUGACACUCUUUCUGUAGAAUUUCUCUCCAAUAUGCUGCUUCUGGUGCUGAUGAAGGUAUGCAGUGUCAUCCAAGUCAACAGAGGAUUGAGCAUCA
B9: chr8:73046310:73046411:+|3pUTR|ENSG00000147601|msi1|FALSE|unique (ssRNA)
RNA: GGGAGUUCUACAGUCCGACGAUCUUGUAUUCUUUAAGAACCUUAUUUUGAUAAAAUGUAAAUUUGUUGAACCCUGCCACAUUUAGUAUCCCCACCCCCAAAUCCUGUUCCAAUGAAAAAAUUAAAACCUGAUACGAAAAAAAACAACAGAGGAUUGAGCAUCA
B10: chr16:67175568:67175669:+|3pUTR|ENSG00000140939|msi1|total|mutant (ssRNA)
RNA: GGGAGUUCUACAGUCCGACGAUCUCCGAGCUCACAGCCUUGGGAAGUGAGACCCGAAGAGGGGAGCAGAAAGGGACCUUGAGCCGACAAAGGCCACACACAUCAUUGUCAUUACUGUUUUAAUUGUCUGGCUUCUCUCUGGACCAACAGAGGAUUGAGCAUCA
B11: ENSG00000070961:be:win_6251|3pUTR|ENSG00000070961|bound_else_gene|NA|bound_elsewhere_windowed (ssRNA)
RNA: GGGAGUUCUACAGUCCGACGAUCCAUCAUUGCCUUUUUUGUGGUUGUAAAUAGACUUACUUGCACUUUGAAGAUGAGUUACUCCUUGUCAUCUUACAAAUAUGUGAUAUGGUAAUUUUCAUAACAGAUGUCAGUUUUGAACCACAACAGAGGAUUGAGCAUCA
B12: chr2:151248206:151248307:-|3pUTR|ENSG00000184898|msi1|FALSE|unique (ssRNA)
RNA: GGGAGUUCUACAGUCCGACGAUCUUUUUUUAAAGCAAAGAUUAAAUUCCCAUGUAAAACCUUCCUCCCUAUACAAAAAAGAAUAGCAGCAUUUUUAUCUUCAAUGACAAAGAAUUGAGUCCAAGAAAAUACUGUAUAAACCUUCAACAGAGGAUUGAGCAUCA
B13: chr8:25429562:25429664:-|3pUTR|ENSG00000104756|unk|total|mutant (ssRNA)
RNA: GGGAGUUCUACAGUCCGACGAUCAGAAAAGCACUCAUUUAACCGAUGCCGGGAAACCCGAUAUUGCUGCCUUUUGAAUGGGGCCGGGGGGUUUACCUGGUUUUAUGACCAGGCACCGUAUCUAUUAUAUUUGCUUUUAAACCGCAACAGAGGAUUGAGCAUCA
B14: chr4:48851844:48851957:+|CDS|ENSG00000109180|unk|total|mutant (ssRNA)
RNA: GGGAGUUCUACAGUCCGACGAUCAUAUGACUCAAGUGUGAGUGGUCAAUCAUCUUUUGUGACAUCCCCAGCAGCAGACAACACCGAAAUGCUUCCUCAUUAUGAGCCAAUUCCAUUCAGUUCUUCUAUGAAUGAAUCUGCUCCCAACAGAGGAUUGAGCAUCA
B15: chr10:127452233:127452334:+|3pUTR|ENSG00000150760|msi1|FALSE|unique (ssRNA)
RNA: GGGAGUUCUACAGUCCGACGAUCGUAUAUAUGAUGGUUCUUAGAACUUGUUUUAAUUUUUGUGGUCCUUCCGUUUAUUAUAAUAGGCGUCCACCAAUGAUUAUCCAUAUGUGUUCUUAAUUUUUAACUGCUGGAAGUGUUAAACAACAGAGGAUUGAGCAUCA
B16: chrX:74588119:74588220:-|3pUTR|ENSG00000131263|msi1|FALSE|bound_elsewhere (ssRNA)
RNA: GGGAGUUCUACAGUCCGACGAUCUCCGAAAAUGCUGGGAUUACAGGCGUGAGCCACCAUGUCCAGCCAAAGUUGAGGUUUAUUAGUACUAUUAGAAACAAAAUUGAGCAAGUUAAGUUAAAAGUUUGCUGACUUUGUAUCAACCAACAGAGGAUUGAGCAUCA
B17: chr17:44352837:44352938:+|3pUTR|ENSG00000030582|unk|total|mutant (ssRNA)
RNA: GGGAGUUCUACAGUCCGACGAUCCUGAAGACUCUGCAGCCCUCGGGACCCCACUCGGAGGGUGCCCUCUGCUCAGGCCUCCCCCGCACCUCCCCCUAACCAAAUUCUCCCUGGACCCCAUUCUGAGCUCCCCAUCACCAUGGGCAACAGAGGAUUGAGCAUCA
B18: chr13:20975083:20975184:-|CDS|ENSG00000150457|msi1|FALSE|unique (ssRNA)
RNA: GGGAGUUCUACAGUCCGACGAUCGCCAGCCCCCUACGUUCCCACCAUCAGCCACCCCAUGGACACCUCGAAUUUCGACCCCGUAGAUGAAGAAAGCCCUUGGAACGAUGCCAGCGAAGGUAGCACCAAGGCCUGGGACACACUCAACAGAGGAUUGAGCAUCA
B19: chr15:91915990:91916091:+|CDS|ENSG00000176463|msi1|total|mutant (ssRNA)
RNA: GGGAGUUCUACAGUCCGACGAUCGUCCUGACCACCCUGGAGCGCCGGUUCAACCUGCAGAGCGCUGACGUGGGUGUGAUCGCCCGCAGCUUCGAGAUCGGGAACCUGGCGCUCAUCCUCUUCGUGAGCUACUUCGGGGCACGCCAACAGAGGAUUGAGCAUCA
B20: chr16:16142165:16142266:+|3pUTR|ENSG00000103222|msi1|total|mutant (ssRNA)
RNA: GGGAGUUCUACAGUCCGACGAUCAUUGAUGUGGGGUAAAUAUUAAGGAGAUGGCCUCAUGGGAAUUUGACCUUGACCCGAAACCGAGACUGAGAGUGAGCAACCAGCUGGAAGGUACUAUGCCAGUCCCCGCAGAAAAAUGUGCAACAGAGGAUUGAGCAUCA
B21: chr11:43405833:43405939:+|CDS|ENSG00000052841|unk|FALSE|unique (ssRNA)
RNA: GGGAGUUCUACAGUCCGACGAUCGGCCCAAACCCCUGACUGUUCCAUAACUGACUUCAGAAAAAGCCACACUCUGUCCUACUUAGUCAAAGAAUUAGAGGUUCGCAUGGAUCUGAAAGCCAAAAUGCCAGAUGACCAUGCACGCAACAGAGGAUUGAGCAUCA
B22: ENSG00000124766:be:win_2701|3pUTR|ENSG00000124766|bound_else_gene|NA|bound_elsewhere_windowed (ssRNA)
RNA: GGGAGUUCUACAGUCCGACGAUCCAACUCAAAUCUGUGCUGGACUUUAAAAAAACAAUUCAGGACCAAAUUUUUUCUCAGUGUGUGUGUUUAUUCCUUAUAGGUGUAAAUGAGAAGACGUGUUUUUUUCCUUCACCGAUGCUCCAACAGAGGAUUGAGCAUCA

The list shows a part of the results.

This assay has as its target MSI1 full-length (mouse, UniProt Q61474 1-362). As to the kind of experiment: nsRBNS (natural sequence RNA bind-n-seq); RBNS binding buffer (assumed for nsRBNS): 25 mM Tris pH 7.5, 150 mM KCl, 3 mM MgCl2, 0.01% Triton X-100, 500 ug/ml BSA, 20 U/ml SUPERase-In, 4 C; UNK is unkempt and MSI1 is Musashi-1; names of the RNAs are library labels; protein concentration not given here; high values mean tight binding.
Sequence of UniProt Q61474 (Q61474 whole entry): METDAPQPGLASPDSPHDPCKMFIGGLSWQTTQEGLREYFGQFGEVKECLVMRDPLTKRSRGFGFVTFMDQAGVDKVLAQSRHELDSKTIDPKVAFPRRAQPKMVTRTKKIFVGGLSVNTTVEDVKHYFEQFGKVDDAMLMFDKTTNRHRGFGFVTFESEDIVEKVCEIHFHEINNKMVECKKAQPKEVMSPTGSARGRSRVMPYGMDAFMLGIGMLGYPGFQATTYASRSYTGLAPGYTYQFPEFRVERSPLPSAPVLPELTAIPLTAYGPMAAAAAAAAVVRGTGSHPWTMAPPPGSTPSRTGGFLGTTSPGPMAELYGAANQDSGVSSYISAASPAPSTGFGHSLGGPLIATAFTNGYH
In turn, B1 registered a binding signal of 0.355 enrichment R.
The same measure for B2: 1 enrichment R; for B3: 0.592 enrichment R; for B4: 2.89 enrichment R.
Consider B5, for which the binding signal was determined as 17.2 enrichment R.
B6: the binding signal was 0.462 enrichment R.
The molecule B7 displayed a binding signal of 0.785 enrichment R.
Turning to B8, the binding signal is 0.376 enrichment R.
Under B9 stands 6.84 enrichment R.
Under B10 stands 0.48 enrichment R.
Under B11 stands 0.405 enrichment R; under B12, 0.494 enrichment R.
For B13, the binding signal turned out to be 0.472 enrichment R.
The same measure for B14: 0.277 enrichment R; for B15: 4.74 enrichment R.
In the case of B16, the binding signal is 3.76 enrichment R.
Under B17 stands 0.425 enrichment R.
The same measure for B18: 1.25 enrichment R.
The same measure for B19: 0.481 enrichment R; for B20: 0.411 enrichment R.
B21 yielded a binding signal of 0.846 enrichment R.
Under B22 stands 0.555 enrichment R.

Values taken from paper PMC12136788.
